For the experiment, the target named is T1, recombinant V5-tagged full-length RSF1 (human, UniProt Q96T23 1-1441).
T1 construct: RSF1 (remodelling and spacing factor 1), full length; printed both as RSF1-V5 and V5-RSF1, so the end of the tag is open; also called RSF1-V5; V5-RSF1; source: FreeStyle 293-F (HEK293F) cells, secreted into the culture medium, concentrated; purified on anti-V5 Sepharose if necessary
T1 sequence (looked up): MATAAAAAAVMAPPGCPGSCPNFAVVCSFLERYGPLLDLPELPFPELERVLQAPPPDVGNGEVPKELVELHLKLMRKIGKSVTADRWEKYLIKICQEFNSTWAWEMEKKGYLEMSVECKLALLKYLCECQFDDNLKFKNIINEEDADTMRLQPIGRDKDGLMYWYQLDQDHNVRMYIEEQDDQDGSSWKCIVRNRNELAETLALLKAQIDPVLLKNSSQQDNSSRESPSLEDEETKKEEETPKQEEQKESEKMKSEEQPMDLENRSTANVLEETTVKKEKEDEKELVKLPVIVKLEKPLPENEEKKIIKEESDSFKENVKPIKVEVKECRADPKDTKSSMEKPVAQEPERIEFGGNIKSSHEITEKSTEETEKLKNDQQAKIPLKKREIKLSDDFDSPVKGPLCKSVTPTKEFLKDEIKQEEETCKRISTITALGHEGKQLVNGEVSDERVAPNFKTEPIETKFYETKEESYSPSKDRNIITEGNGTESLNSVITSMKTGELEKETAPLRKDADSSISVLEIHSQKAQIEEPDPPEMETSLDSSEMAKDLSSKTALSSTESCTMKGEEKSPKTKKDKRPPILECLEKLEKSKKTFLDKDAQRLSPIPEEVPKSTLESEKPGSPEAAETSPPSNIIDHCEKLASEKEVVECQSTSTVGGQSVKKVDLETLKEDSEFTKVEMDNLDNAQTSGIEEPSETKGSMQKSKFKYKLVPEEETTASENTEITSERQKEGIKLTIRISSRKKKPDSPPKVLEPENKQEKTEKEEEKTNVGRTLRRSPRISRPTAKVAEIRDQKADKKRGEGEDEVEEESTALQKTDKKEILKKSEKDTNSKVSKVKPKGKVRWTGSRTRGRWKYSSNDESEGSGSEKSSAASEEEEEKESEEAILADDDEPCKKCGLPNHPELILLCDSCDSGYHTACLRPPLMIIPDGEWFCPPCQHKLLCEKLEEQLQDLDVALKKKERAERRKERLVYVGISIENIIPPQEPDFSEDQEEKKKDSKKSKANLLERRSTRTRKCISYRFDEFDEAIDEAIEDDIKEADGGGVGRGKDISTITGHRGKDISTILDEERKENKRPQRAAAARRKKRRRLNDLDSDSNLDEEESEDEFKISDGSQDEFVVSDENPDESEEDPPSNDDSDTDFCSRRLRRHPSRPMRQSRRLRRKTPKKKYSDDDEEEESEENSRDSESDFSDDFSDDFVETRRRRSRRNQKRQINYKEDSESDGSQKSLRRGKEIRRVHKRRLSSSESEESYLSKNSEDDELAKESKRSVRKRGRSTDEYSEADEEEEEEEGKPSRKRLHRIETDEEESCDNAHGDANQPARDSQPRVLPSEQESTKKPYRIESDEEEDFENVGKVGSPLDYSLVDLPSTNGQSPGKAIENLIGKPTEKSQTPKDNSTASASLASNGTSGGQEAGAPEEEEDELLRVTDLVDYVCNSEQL
Kind of experiment: pull-down; in vitro binding assay: Myc-, HA- or Flag-tagged protein immunopurified from mitosis-enriched HEK293T cells and immobilised on beads, incubated with recombinant RSF1-V5 for 2 h at 4 °C; bound RSF1-V5 detected by immunoblotting. Particulars: both partners purified.

B1: Flag-PLK1 kinase-dead mutant (PLK1 K82R) (natural protein)
chain: not shown
notes: Polo-like kinase 1 (PLK1), kinase dead; also called KD; source: mitosis-enriched HEK293T cells, immunopurified
As to B1, the binding result is “binds”.

B2: Flag-PLK1-C ([…]) (domain or fragment)
chain: not shown
notes: PLK1, C terminus with two Polo-box domains, […]; source: mitosis-enriched HEK293T cells, immunopurified
In the case of B2, the binding result is “binds”.

The values are drawn from PMC4918322, “The chromatin remodeller RSF1 is essential for PLK1 deposition and function at mitotic kinetochores” (Nature Communications, 2015).
